Results reported in the RNAGym collection of RNA variant scans (doi:10.7554/elife.90254).
The source gives no read counts; variants with many changes may rest on few reads.

B1: LINE1-mini (parent)
chain: GGCAGAGCUCAACACAGCGUGGCAAAGUGGCUGUGGCUAGACUGCC

Variants of: B1
Assay: self-cleavage, relative activity (ratio to wild type); higher = more cleavage; in vitro, sequencing; the parent is a self-cleaving ribozyme

Row | Variant | self-cleavage
1 | GGAAGAGCUCAACACAGCGUGGCAACGUGGGUGUGGCUAGACUGCC | 0.11
2 | GGAAGGGCUCAACACAGCGUGGCAAAGUGGCUGUGACUAGAAUGCC | 0.15
3 | GGAAGAGCUCAUCAUAGCGUGGCAAAUUGGCUGUGGCUAGAGUGCC | 0.11
4 | GGAAGAGUUCAACACAGAGUGACAAAGUGUCUGUGGCUAGACAGCC | 0.32
5 | GGAAGAGCUCUACACAGCCUGGCAAAGUGGCUUUGGCUAGACCACC | 0.04
6 | GGAAGAGAUCAACAUAGCGUAGCAAAGUGGCUGUGGCUAGACUGCC | 2.89
7 | GGAAGAGCUCCACACAGCGGGGCAAAGUGGCUGUGGCUACACUGCC | 0
8 | GGAAGAGCUUAACACAGCGUGGCAAAGUGGCUGUCGCUAUACUGGC | 0.03
9 | GGAAGAGAUCAACAAAGUGUGGCAAAGUGGCUGUGGCUAGACUGCC | 0.23
10 | GGAAGAGCUCAACUCAGCGUGGCAAAGCGGCUGUGGCUACACUGCC | 0.81
11 | GGAAGGGCUCAACACCGCGUGGCAAAGUGGCUGUGGCUAGACUCCC | 0.02
12 | GGAAGUGCUCAACACAGCGUGGCAAAGUGGCUGUGGCUUGACUGCC | 0.55
13 | GGAAGAGGUAAACUCAGCGUGGCAAAGUGGCUGUGGAUAGUCUGCC | 0.02
14 | GGAAGAGCUUAACACAGCGUGGCAAAGAGCCUGCGGCUAGACUUCC | 0.08
15 | GGAAGAGAUCAACACAGCGUGGCAAAGUGGCUGUGGCUAGACUGCA | 0.42
16 | GGAAGAGCUCAACGCAGCGUGGCAAAGUGGAUGUGGCUAGACUGCC | 0.16
17 | GGAAGAGGUCAACACAGCGUGGCAAAGUGGCUGUGACUAGACCGAC | 0.01
18 | GGAAGAGCUCACCACAGCGUGGCAAAUUGGCUGUGGCUAGACUUCC | 0.03
19 | GGAAGAGCUGAACAAAGCGUGGCAAAGUGGCAGUGGCUAAACUGCC | 0.01

Row | Variant | self-cleavage
20 | GGAAGAGCUCCACACAGCGUGGCAAAGUGGCUGUGGCUAGACUGCU | 0.02
21 | GGAAGAGCUCAACACCGCGUGGCAAAGUGGCUGUUGCUAGACUACC | 0.14
22 | GGAAGAGCUCGACACAGCGUGGCAAAGUGGCUGUGGCUAGAGUGCC | 0.01
23 | GGAAGAGUUCAACACACCGUGGCAAAGUGGCUGUGCCUAGACAGUC | 0.07
24 | GGAAGAGCUCAGCACAGCGUGGCAAAGUGGCUGUGGCGAGACUUCC | 0.02
25 | GGAAGAGCUAAACACAGCGUGGCAAAGUGUUAGUGGCUAGACUGGC | 0.02
26 | GGAAGUGCUCAACACAGCGUGGCAAAGUGACUGUGACUAGACUGCC | 0.81
27 | GGAAGAGCUGAACAUAUCGUGUCAAAGUGGCUGUGGCUAGACUGAC | 0.06
28 | GGAAGAGCUCCAAACAGCGUGGCAAAGUGGUUGUGUCUAGACUGCC | 0.01
29 | GGAAGAGGUCAACACAGCGUGGCAAAGUGGCUGUCGCUAGAUUGCC | 0.08
30 | GGAAGAGCUCAACACAGCGUGGCAAUGUGCCUGUGGCUACACUGCC | 0.2
31 | GGAAGAGCUCAACACGGCGUGGCAAAAUGGCUGUGCCUAGACUGCC | 0.58
32 | GGAAGAGCUUAACACAGAGUGGCAAAGUGGCUGUGGCUAGACUGCC | 0.39
33 | GGAAGAGCUCUACACAGCGUGGCAAAGUGGCUGUGGCUAGACUGAC | 0.03
34 | GGAAGAGCUCAACACAGCGUGGCAGAGUGGCUGGGGCUAGACCGCC | 0.04
35 | GGAAGUGCUCAACACAGCGUGGCAAAGAGGCUGUGGCUAGACUGCC | 0.21
36 | GGAAGAGCUCAACCCAGCGUGGCAAAGUGGCAGUGGCUAGACUGCC | 0.06
37 | GGAAGAGUUCAACACAGAGUGUCAAAGUGGCUGUGGCUAGACUGCC | 1.28
38 | GGAAGAGAUCAACCCAGCGAGGCAAAGUAGCUGUGGCUAGACUGCC | 0.06

Row | Variant | self-cleavage
39 | GGAAGAGCUCAACUCAGCGUGGAAAAGUGGCUGUGACUAGACUGCC | 0.33
40 | GGAAGAGCUAAACACAGCGUGGCAAAGUGGCAGUGGCCAGACUGCC | 0.03
41 | GGAAGAGCUUAACACAGCGUGGCAAAGUUGCUGUGGCUAGACUGCC | 0.37
42 | GGAAGAGCUCGACACAGCGUGCCAAAGUGGCUGUCCCUAGACUCCA | 0
43 | GGAAGAGCUCCACACAGCGUGGAAAAGUGGCUGUGGCUAGACUGCC | 0.06
44 | GGAAGAGCUCACCACAGCAUGGCAAAGUGGCUGUGGCUAGACUGCC | 0.02
45 | GGAAGAGAUCAACACAGCGUGGCAAAGUGGUUGUGGCUAGACUGCC | 1.12
46 | GGAAGAGCUCAACACAGCGUGGCUAAGUGGCUAUGUCUAGACUGCC | 0.19
47 | GGAAGAGCUCUACAAAGCGUGGCAAAGUGGCUGUGGCUAGACUGCC | 0.06
48 | GGAAGAGCUCAUCACACCGAGGCAUAGUGGCUGUGGCUAGACUGCC | 0.07
49 | GGAAGAGCUAAACACAGCGUAGCAAAGUGGCUGUGGCUAGACUGCC | 0.04
50 | GGAAGAGCUCAACACAGCGUGGCUAAGUGGCUGUGGCUAGACUUCC | 2.8
51 | GGAAGAGUUCAACACAGCGUGUCAAAGUGGCUGUGGCUAGACUGCC | 0.39
52 | GGAAGAGCUCAACACAGCGUGGCGCAGAGGCUGUGGCUAGACUGCC | 0.2
53 | GGAAGAGCUCUACACAGCAUGGCAAAGUGGCUGUGGCUAGACUGCC | 0.01
54 | GGAAGAGCUCAACGCAGCGUGACCAAGUGGCUGUGGCUAGACUGUC | 0.09
55 | GGAAGAGCUCAACACAGCGUGGCCAAGUGGCUGUGGCUAGACUGUC | 0.1
56 | GGAAGAGCUCAACUCAGCGUGGCAACGUGGCUGUGGCUAGACUGCC | 0.23
